The values below come from PubChem BioAssay AID1918931 (Molecular Pharmacology Branch, DTP, NCI, 2023).

The assay deals with 138582-337-R-J1-PDC complex spheroid viability. The experiment in a line: Anticancer human tumor 138582-337-R-J1-PDC patient-derived Merkel cell tumor cell line growth inhibition. The settings on record: for viability, T/C: stronger effect = lower value. The source says:
Multicellular complex tumor spheroid response to LSD1 Inhibitor Iadademstat in combination with a variety of drugs and investigational agents in selected tumor cell lines
The current study was undertaken to assess response to LSD1 inhibitors in combination with standard-of-care drugs and investigational agents in solid tumor complex spheroid models as well as in the K-562 leukemia. Complex spheroids include a stromal component modeled by human endothelial cells (HUVEC) and fibroblasts modeled by human mesenchymal stem cells (MSCs). The concentration ranges selected for each drug and investigational agent were based upon clinically achievable concentrations if the clinical Cmax of the agent was known.
Compounds. The drugs and investigational agents used in this study are listed on Table 1. All of the agents used, including staurosporine (NSC755774) and gemcitabine (NSC613327), were obtained from the Developmental Therapeutics Program, NCI. FDA-approved anticancer drugs are available from the NCI at http://dtp.nci.nih.gov/branches/dscb/oncology_drugset_explanation.html. Drugs and investigational agents were >95% pure by proton nuclear magnetic resonance (NMR) and liquid chromatography/mass spectrometry (LC/MS). Stock solutions were prepared at 400x in DMSO, stored at -70 degrees C, and diluted in fresh medium prior to their use. The final concentration of DMSO in cell culture wells never exceeded 0.25% (v/v). The FDA-approved anticancer drug set is available from the Developmental Therapeutics Program at https://dtp.cancer.gov/organization/dscb/obtaining/available_plates.htm. All drugs and investigational agents were tested over a range starting from a high concentration at or near the clinical Cmax and decreasing in half-log increments. If the clinical Cmax for an agent had not been determined, the highest concentration tested was 10 microM.
Cell Lines. The patient-derived cancer cell (PDC) lines: 292921-168-R-J2-PDC, K24384-001-R-PDC, and 521955-158-R2-J5-PDC pancreatic carcinomas, 556581-035-R-J1 ovarian carcinoma, 324938-238-R-J1-PDC, 855422-203-R-J1-PDC and 883617-216-R-J1-PDC urothelial bladder carcinomas, 743489-274-T-PDC renal cell carcinoma, 138582-R-J1 Merkel cell tumor, K60290-347-R-J1 and K57222-313-R-J1-PDC glioblastomas, 653999-131-R-J2-PDC, LG0703-F948-PDC, and 349418-098-R-PDC non-small cell lung carcinomas, 885512-296-R-J2-PDC, 171881-019-R-J1-PDC breast carcinomas and 186277-243-T-J2-PDC and 233499-124-R-J2-PDC colon carcinomas were obtained from the NCI Patient-Derived Models Repository (PDMR, https://pdmr.cancer.gov). The established cell lines NCI/ADR-RES (RRID:CVCL_14520 and OVCAR-5 (RRID:CVCL_1628) ovarian carcinomas, 786-O (RRID:CVCL_1051) and A498 (RRID:CVCL_A498) renal cell carcinoma, NCI-H211 (ATCC, cat. CRL-5824; RRID:CVCL_1529), NCI-H196 (ATCC, cat. CRL-5823, RRID:CVCL_1509), SW 1271 (ATCC, cat. CRL-2177, RRID:CVCL_1716) and NCI-H1876 (ATCC, cat. CRL-5902, RRID:CVCL_1503) small cell lung carcinomas, MDA-MB-231 (RRID:CVCL_0062) and MDA-MB-468 (RRID:CVCL_0419)breast carcinomas (10-12). Pooled donor human umbilical vein endothelial cells (HUVEC, Lonza, cat. CC-2519) and human mesenchymal stem cells (hMSC, Lonza, cat. PT-2501) were purchased from Lonza (Walkersville, MD).
Cell Culture. All cells were maintained in an incubator at 37 degrees C and 5% CO2 with 95% humidity. The PDC lines were cultured according to standard operating procedures established by the NCI PDMR (https://pdmr.cancer.gov). Briefly all PDCs were thawed and cultured in Matrigel-coated flasks prepared with a working solution of 1X Ham's F-12 nutrient mix, without supplementation (Invitrogen, Waltham, MA, cat. 11765054), 100 U/mL penicillin-streptomycin (Invitrogen, cat. 15140122), and 2.5% Matrigel (Corning Inc., Corning, NY, cat. 354248) for the first three passages. […]

Molecules are shown by their SMILES. Certain results were filed several times, with different values. This list holds those alone. There may be further records. Values that stand side by side repeat one measurement across runs, samples, wells, individuals or studies. Signs of the kind (2×) say how often a value occurs here. Marks such as [2022-09] give the month of the run.
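Note: spheroids exposed to agents for 7 days.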

On to `NC1CC1c1ccc(-c2cccc(O)c2)cc1` (configuration not stated), for which the viability, T/C (as a rule, the ratio of treated to control) by setting is: (compound alone 0.316 µM) 70, 71.9, 84.7, 72.6, 79.8, 67.1, 78, 73.3, 81, 89.1, 76.5, 99.4, 60.1, 77.7, 68.2, 73.8, 79.5, 69.5, 67.3, 82.3, 73.6, 83.3, 81.1, 80.7%; (compound alone 1 µM) 70.7, 69.8, 80.5, 81, 74.2, 73.5, 62.6, 87.7, 86.3, 102, 88.6 (2×), 83.3, 60.5, 64.6, 71.9, 79.8, 61, 57.4, 83.5, 71.6, 63.2, 85.2, 75.2, 74.4%; (compound alone 3.16 µM) 74, 79.6, 86.7, 79.2, 87.6, 74.3 (2×), 88.5, 93.8, 81.9, 95.4, 98.8, 71.1, 84.7, 75, 90.3, 89.8, 78.1, 81.8, 76.7, 75.1, 65, 70.9, 72.2, 77.4%; (compound alone 10 µM) 77.8, 78.1, 71.7, 77, 75.9, 69.1, 83.3, 93.8, 101, 104, 87.8, 118, 85.1, 95.7, 90, 97.9, 89.3, 81.4, 85.4, 79.2, 72.3, 77.7, 94.5, 88.8, 90.3%.

`O=C(C=Cc1cccc(S(=O)(=O)Nc2ccccc2)c1)NO`: the viability, T/C (compound alone 3 µM) was 6.82% [2022-01] and 80.9% [2022-02].

Consider `NC1CCC(NC2CC2c2ccccc2)CC1` (configuration not stated), for which the viability, T/C is 88, 89.6, 108, 112, 95.5, 91, 104 (3×), 98.5 (2×), 93.1, 102 (2×), 117, 86.4, 89.3, 85.8, 106, 111, 90.8, 83.5, 91.8, 88.1, 90% (compound alone 0.1 µM); 89.8, 102 (2×), 90.1 (2×), 105, 108 (2×), 91.5, 114, 98.1, 93.3 (2×), 93.5, 100 (2×), 80.5, 86.2, 96.8, 90.5, 103, 94, 92.7, 87.3, 92.3% (compound alone 1 µM); 98.2, 94.7, 89.5, 105 (2×), 98.1, 96.8, 91.2, 108, 93.6, 104, 116, 92.2, 85.7, 109, 82.6, 91.9, 96.4, 97.8, 99, 97.7, 87, 97.3, 89.2, 80.5% (compound alone 3.16 µM); 77.7, 79.6, 78.2, 95.2, 92, 85.3, 84.1, 79.5, 88.9, 99.5, 70.9, 80.7, 85.6, 90.1, 90.8, 89.9, 86.9, 83.4, 75.6, 80.8, 82.8, 76.4, 71.7% (compound alone 10 µM).

For `CC1COCCN1c1cc(-c2ccnn2C)c2ccnc(-c3ccn[nH]3)c2n1` (configuration not stated), the IC50 (commonly the point on the concentration scale where inhibition reaches its midpoint) (compound alone) was 505 nM [2022-01] and 30.2 nM [2022-02].

Take `CC(C)CC(NC(=O)C(Cc1ccccc1)NC(=O)c1cnccn1)B(O)O` (configuration not stated): under “compound alone 0.001 µM”, the viability, T/C is 45% [2022-01] and 0.75% [2022-02].

For `CC1(C)CCC(CN2CCN(c3ccc(C(=O)NS(=O)(=O)c4ccc(NCC5CCOCC5)c([N+](=O)[O-])c4)c(Oc4cnc5[nH]ccc5c4)c3)CC2)=C(c2ccc(Cl)cc2)C1`, where the note is “compound alone 10 µM”, the viability, T/C is 79.6% [2022-01] and 2.83% [2022-02].
